Target: PRMT5/MEP50 Complex (Homo sapiens (Human), UniProt O14744)
Assay: PRMT5 inhibition based on TR-FRET assay
Format: biochemical
Details: 32 nM PRMT5:MEP50 complex, 50 nM Histone-H4 peptide, 1 μM SAM, 90 minutes at room temperature
From the text: Protein arginine methyltransferase 5 (PRMT5) is a type II arginine methyltransferase that catalyze mono- and symmetric demethylation on arginine residues of histone or non-histone proteins in presence of S-adenosylmethionine (AdoMet or SAM) a cofactor responsible for donating the methyl group. PRMT5 is reported to be overexpressed in several human cancers. To identify compounds that inhibit the PRMT5 and decrease its activity, a TR-FRET based assay has been established. Time-resolved fluorescence resonance energy transfer (TR-FRET) HTS assays are homogeneous proximity assays where the interaction of two dye-labeled binding partners is detected by the energy transfer between a donor and an acceptor dye, and the subsequent light emission by the acceptor dye. PRMT5 catalyzes Histone H4 peptide which is biotin tagged to the Lysine amino acid at carboxyl end, in presence of S-adenosyl-1-methionine (SAM) to methylate the peptide. The antibody specific to mono methylated H4 peptide (H4R3) with Ig conjugate binds to the methylated peptide, indirectly binding to the Europium lanthanide. […]
The compound dilutions were prepared as 7.5% DMSO stock solutions in assay buffer. […] The plates were then read on Victor-3 with Excitation at 340 nm and Emissions collected at 615 and 665 nm in TR-FRET protocol. […]

SMILES	IC50 [µM]
CN1CCC(c2ccc(CN3CCN(C[C@H](O)CN4CCc5ccccc5C4)C3=O)nc2)CC1 [Compound 47, (R)-1-(3-(3,4-dihydroisoquinolin-2(1H)-yl)-2-hydroxypropyl)-3-((5-(1-methylpiperidin-4-yl)pyridin-2-yl)methyl)imidazolidin-2-one]	0.085
O=C1N(Cc2ccc(N3C4CCC3COC4)cn2)CCN1C[C@H](O)CN1CCc2ccccc2C1 [Compound 19, 1-((5-(3-oxa-8-azabicyclo[3.2.1]octan-8-yl)pyridin-2-yl)methyl)-3-((R)-3-(3,4-dihydroisoquinolin-2(1H)-yl)-2-hydroxypropyl)imidazolidin-2-one]	0.037
